# Laboratory results from PubChem BioAssay AID1030 (National Center for Advancing Translational Sciences (NCATS), 2008).
# Out of some 220,000 compounds screened, about 16,000 (7.3%) were called active. Inconclusive results, whose numbers are uncertain, are shown with a selection of clear calls. Calls follow the shape of the dose curve; as a rule, active = well fitted inhibition curve with a large enough effect (not every such curve was filed as active); inconclusive = small, poorly fitted or top-dose-only effect, or another doubt; inactive = no such curve, though single readings can be large or run the other way. No potency is given beside an inconclusive call; the fits are too rough.
# Biological target: Aldehyde dehydrogenase 1A1 (Homo sapiens) (UniProt P00352)
# Sequence of UniProt P00352 (P00352 whole entry, looked up): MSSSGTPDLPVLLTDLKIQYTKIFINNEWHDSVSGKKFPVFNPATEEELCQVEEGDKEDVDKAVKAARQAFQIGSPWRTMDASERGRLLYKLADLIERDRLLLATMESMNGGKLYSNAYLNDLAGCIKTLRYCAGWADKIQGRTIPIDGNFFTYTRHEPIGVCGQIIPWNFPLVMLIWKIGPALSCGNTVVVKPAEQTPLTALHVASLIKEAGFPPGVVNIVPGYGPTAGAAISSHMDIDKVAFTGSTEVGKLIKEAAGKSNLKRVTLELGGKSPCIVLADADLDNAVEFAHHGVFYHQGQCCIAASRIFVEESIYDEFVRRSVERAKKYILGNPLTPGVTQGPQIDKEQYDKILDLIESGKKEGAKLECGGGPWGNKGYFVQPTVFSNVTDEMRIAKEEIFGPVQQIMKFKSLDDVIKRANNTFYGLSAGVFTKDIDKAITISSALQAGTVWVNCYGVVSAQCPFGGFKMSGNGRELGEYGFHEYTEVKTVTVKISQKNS
# Assay: qHTS Assay for Inhibitors of Aldehyde Dehydrogenase 1 (ALDH1A1);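 as to activity, negative = inhibition: plate controls were no enzyme wells and a reference inhibitor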
# Conditions: Purified ALDH1A1, NADH fluorescence, propionaldehyde substrate; series mostly up to 75.3 µM
# Potency is read from the fitted curve at half-maximal effect; tags tell the direction and shape of the fitted curve.
Structure (SMILES),Potency,"activity, negative = inhibition"
CC(=O)NCCNc1ncnc2ccc(-c3ccc4c(c3)OCO4)cc12,"inconclusive [inhibitor, single point]",
COc1ccc(Cl)cc1N1C(=O)C2CCCN2C1c1ccccc1F (configuration not stated),"inconclusive [inhibitor, single point]",
O=C(COC(=O)c1cccc(Cl)c1Cl)NCCN1C(=O)CSC1=O,inactive,
Cc1ccc(CCCC(=O)O)cc1C,,inactive: 14.7% [at 13.5 µM]
Cc1ccc(/C=N/n2c(C)nnc2C)s1,inactive,
CCOC(=O)c1sc(NC(=O)/C=C/c2cnn(C)c2C)c(C(=O)OCC)c1C,"inconclusive [inhibitor, full curve]",
C=CCn1c(-c2ccc(F)cc2)n[nH]c1=S,inactive,
CCOc1cc(N2CCOCC2)c(OCC)cc1NC(=O)CN1CCc2ccccc2C1,"inconclusive [inhibitor, partial curve]",
CC(C)c1ccc2oc(-c3cc(N)ccc3O)nc2c1,"inconclusive [inhibitor, partial curve]",
Cc1cc(C)n(-c2c(F)c(F)c(CN3CCCCC3)c(F)c2F)n1,inactive,
N#CC(C#N)=C(Nc1ccccc1)c1ccccc1,"inconclusive [inhibitor, single point]",
O=S1(=O)CCC(N=Cc2ccc(-c3ccc(Cl)cc3)o2)C1 (configuration not stated),"inconclusive [inhibitor, partial curve]",
NNC(=O)c1cnn(Cc2ccccc2)c1N,active: 12.6 µM,
Cc1nc(SCC(=O)OCc2ccccc2)c(C#N)c(-c2ccccc2)c1C(=O)Nc1ccccc1,active: 20 µM,
CC(OC(=O)c1snc(C(=O)NC2CCCCC2)c1N)C(=O)NC(C)(C)C (configuration not stated),"inconclusive [inhibitor, single point]",
CCN(CC)S(=O)(=O)c1ccc2nc(CCl)[nH]c2c1,active: 20 µM,
COc1ccc(CN2CCN(C(=O)c3ccc4nc(N5CCOCC5)sc4c3)CC2)c(OC)c1OC,inactive,
CCOC(=O)Nc1ccc(NCc2ccc(F)cc2)nc1N,"inconclusive [inhibitor, partial curve]",
COC(=O)N1[C@H](Cc2ccccc2)C=C[C@]1(C)C(=O)NCc1ccc(N(C)C)cc1,"inconclusive [inhibitor, single point]",
Cc1ccc(C2CC(=O)c3cnn(-c4nc(C)cc(C)n4)c3C2)cc1 (configuration not stated),inactive,
O=C(Nc1ccc(-c2nnc(-c3ccco3)o2)cc1)C(c1ccccc1)c1ccccc1,"inconclusive [inhibitor, single point]",
CN(C)/C=C/C(=O)/C=C/c1ccc(Cl)cc1Cl,"inconclusive [inhibitor, partial curve, poor fit]",
O=c1cnc2cnc(N3CCOCC3)nc2n1C[C@H]1CCCO1,"inconclusive [inhibitor, single point]",
COc1ccc2c(c1)C(c1ccccc1C)CC(=O)O2 (configuration not stated),active: 31.6 µM,

Structure (SMILES),Potency,"activity, negative = inhibition"
Cc1nc(NC(=O)COC(=O)CCS(=O)(=O)c2ccccc2Cl)c(Cl)cc1Cl,"inconclusive [inhibitor, partial curve]",
CCCc1c(C(=O)NNc2ccccc2OC)cnn1-c1ccccc1,active: 7.94 µM,
Cc1ccnc2nc(C(=O)Nc3ccc(S(=O)(=O)N4CCCC4)cc3)nn12,"inconclusive [inhibitor, partial curve]",
CCCc1nnc(SCC(=O)N2CCOCC2)n1CCCOC,inactive,
O=C(CSc1nnc(-c2ccc(C(F)(F)F)cn2)s1)c1ccccc1,"inconclusive [inhibitor, single point]",
O=C(OCC(=O)c1ccc(S(=O)(=O)N2CCCC2)cc1)C1=COCCO1,"inconclusive [inhibitor, single point]",
CCCOc1ccc(OCCSc2ncccn2)cc1,inactive,
Cc1noc(C)c1COC(=O)CCOc1ccccc1,"inconclusive [inhibitor, single point]",
O=C(COC(=O)c1cncc(Br)c1)NCc1ccc2c(c1)OCO2,"inconclusive [inhibitor, single point]",
COc1cccc(CC(=O)Nc2nccs2)c1,inactive,
CCC(CC)c1nnc(NS(=O)(=O)Cc2ccccc2)s1,"inconclusive [inhibitor, single point]",
CC1CCCCN1C(=O)CSCC(=O)Nc1nc(-c2cccs2)cs1 (configuration not stated),"inconclusive [inhibitor, partial curve]",
COc1cc(CN2CCN(c3cccc(C)c3C)CC2)cc(Br)c1O,"inconclusive [inhibitor, single point]",
Cc1c(/C=N\NC(=O)c2c[nH]c3ccccc23)cnn1C,"inconclusive [inhibitor, single point]",
CCOc1cc(NC(=S)NCc2ccco2)c(OCC)cc1NC(=O)c1ccco1,"inconclusive [inhibitor, partial curve, poor fit]",
Oc1ccc(Cl)cc1C1=Nc2ccccc2N=C(c2ccco2)C1,inactive,
Cc1ncc(CO)c(/C=N/NC(=O)c2ccccc2Br)c1O,"inconclusive [inhibitor, single point]",
Cc1ccc(OCCCC(=O)Nc2ccccc2C(F)(F)F)cc1,inactive,
O=C(Nc1cccc(Cl)c1)c1csc(-c2ccccc2)n1,"inconclusive [inhibitor, single point]",
CC[n+]1c(/C=C/c2ccc(N(C)C)cc2)ccc2ccccc21,"inconclusive [inhibitor, partial curve]",
COC(=O)C1Cc2c([nH]c3ccccc23)CN1 (configuration not stated),"inconclusive [inhibitor, single point]",
CCOc1ccc2[nH]c(C)cc(=O)c2c1,"inconclusive [inhibitor, single point]",
C=CCOc1ccc(/C=N/N2C(=O)C(CC(=O)Nc3ccc(F)cc3F)SC2=NC)cc1 (configuration not stated),"inconclusive [inhibitor, single point]",
